According to article PMC4336329 (PLoS ONE, 2015):
About 14,000 (4.5%) of roughly 310,000 compounds showed an effect of 50% or more. The effect is printed as a negative number. The list shows a part of the results.

target: human ether-à-go-go-related gene (hERG) potassium channel (human, UniProt Q12809); test: primary screen, population patch clamp on CHO cells stably expressing hERG
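Further: peak tail current of the secondary pulse compared with the same well before compound.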

Chain of human ether-à-go-go-related gene (hERG) potassium channel (Q12809 whole entry, looked up): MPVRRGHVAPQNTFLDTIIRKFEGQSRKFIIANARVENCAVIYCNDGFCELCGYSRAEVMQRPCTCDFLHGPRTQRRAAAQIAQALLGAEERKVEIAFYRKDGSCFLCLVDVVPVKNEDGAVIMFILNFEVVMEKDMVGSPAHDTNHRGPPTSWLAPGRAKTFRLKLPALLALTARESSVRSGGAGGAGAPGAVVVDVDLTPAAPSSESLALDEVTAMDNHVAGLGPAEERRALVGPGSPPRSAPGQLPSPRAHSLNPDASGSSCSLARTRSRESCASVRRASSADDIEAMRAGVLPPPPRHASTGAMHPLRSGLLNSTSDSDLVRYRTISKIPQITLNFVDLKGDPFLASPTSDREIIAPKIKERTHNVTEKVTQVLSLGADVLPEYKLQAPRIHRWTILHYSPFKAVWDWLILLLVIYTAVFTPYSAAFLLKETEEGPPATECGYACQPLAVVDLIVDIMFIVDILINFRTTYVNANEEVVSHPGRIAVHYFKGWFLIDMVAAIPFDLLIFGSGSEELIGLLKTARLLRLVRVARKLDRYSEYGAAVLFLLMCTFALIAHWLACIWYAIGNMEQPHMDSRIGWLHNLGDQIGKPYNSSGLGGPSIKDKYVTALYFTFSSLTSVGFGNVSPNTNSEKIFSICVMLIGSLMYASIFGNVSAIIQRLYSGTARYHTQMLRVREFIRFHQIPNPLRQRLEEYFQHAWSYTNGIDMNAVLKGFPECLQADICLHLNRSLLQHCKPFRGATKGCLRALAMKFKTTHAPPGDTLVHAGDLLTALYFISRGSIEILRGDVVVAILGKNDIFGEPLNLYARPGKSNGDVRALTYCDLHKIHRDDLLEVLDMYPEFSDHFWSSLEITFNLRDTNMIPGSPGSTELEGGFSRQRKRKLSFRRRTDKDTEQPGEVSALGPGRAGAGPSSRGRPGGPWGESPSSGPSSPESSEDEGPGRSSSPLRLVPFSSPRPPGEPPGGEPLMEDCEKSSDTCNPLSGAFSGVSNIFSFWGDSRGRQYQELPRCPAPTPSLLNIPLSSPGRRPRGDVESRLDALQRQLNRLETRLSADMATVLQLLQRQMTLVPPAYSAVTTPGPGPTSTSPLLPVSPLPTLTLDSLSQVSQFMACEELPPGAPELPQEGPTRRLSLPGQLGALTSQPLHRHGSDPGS

Row | SMILES | hERG current change (%, negative = inhibition) at 10uM [%]
1 | O=C(COC(=O)c1cccc(O)c1)Nc1ccc(S(=O)(=O)N2CCOCC2)cc1 | 6.31
2 | CCOc1ccc(-n2c(SCC(=O)Nc3ccc(CC)cc3)nc3n[nH]c(C)c3c2=N)cc1 | 18.6
3 | CCc1nc(SCc2ccc(OCC(C)C)cc2)n[nH]1 | 1.32
4 | O=C(Cc1ccccc1)NNC(=O)C1CCN(c2ncccn2)CC1 | 8.45
5 | Cl.O=C(OCCN1CCCCC1)c1cccc(F)c1 | -4.33
6 | Cn1c(=O)c(C(=O)CN2CCCc3ccccc32)c(N)n(Cc2ccccc2)c1=O | 6.32
7 | O=C(NCCCl)Nc1ccc(Cl)c([N+](=O)[O-])c1 | 4.15
8 | C#Cc1ccc([C@@H]2C=C(C(=O)O)O[C@H](OCC)[C@H]2CCCO)cc1 | 18.4
9 | CNc1ccccc1NC(=O)C1CCCN1C(=O)OCc1ccccc1 (centres unmarked) | 4.72
10 | CN(C(=O)Nc1ccc(Cl)cc1)c1c2c(nn1C)CCCC2 | -8.17
11 | CCCCC(=O)Nc1ccc(C(=O)Nc2ccc(S(=O)(=O)Nc3nccc(C)n3)cc2)cc1 | 9.11
12 | Nc1ccccc1C(O)(Cc1ccccc1)c1ccccc1 (centres unmarked) | 12.2
13 | CCOc1ccc(S(=O)(=O)c2c[nH]c3ccccc3c2=O)cc1 | 13.7
14 | COC(=O)c1cc(NC(=O)C2(S(=O)(=O)c3ccc(Cl)cc3)CC2)cc(C(=O)OC)c1 | -36.8
15 | Cc1ccccc1CSc1nnc(NC(=O)C2COc3ccccc3O2)s1 (centres unmarked) | -6.38
16 | O=C(NCc1ccccc1)c1ccc(COCC(F)(F)F)o1 | -5.64
17 | C=CCNC(=O)CSc1cc([N+](=O)[O-])cc(S(=O)(=O)Cc2ccccc2)c1 | -23.9
18 | COc1ccccc1N1CCN(C(=O)c2cc(-c3ccc(Cl)cc3)on2)CC1 | 8.31
19 | COc1cccc(/C=N/NC(=O)CNC(=O)c2ccco2)c1O | 12.2

Row | SMILES | hERG current change (%, negative = inhibition) at 10uM [%]
20 | CC1Oc2ccccc2N(CC(=O)NC2CCCC2)C1=O (centres unmarked) | 11.7
21 | CCCS(=O)(=O)N1CCN(C(=O)c2cccc(OC)c2)CC1 | 4
22 | O=C(Nc1ccc2c(c1)OCO2)N1CCN(c2ccccc2Cl)CC1 | -32.3
23 | Cc1[nH]c2ccc(O)cc2c1CCN.O=C([O-])/C=C\C(=O)[O-] | 11.2
24 | CCCc1cc(NCCN(C)C)n2c(nc3ccccc32)c1C#N | -7.73
25 | COc1ccc(C2N=C(Nc3ccc(C)cc3)Nc3nc(C)cc(=O)n32)cc1 (centres unmarked) | 1.81
26 | O=C(CSc1nnc(-c2ccccc2)c(-c2ccccc2)n1)NCc1ccco1 | -55.5
27 | NNC(=O)c1ccc(CN2C(=O)c3cccc4cccc2c34)cc1 | -8.58
28 | S=C(Nc1ccccc1)N1CCN(C/C=C/c2ccccc2)CC1 | -8.71
29 | CCCS(=O)(=O)N1CCN(Cc2ccncc2)CC1.O=C(O)C(=O)O | 10.8
30 | CCOC(=O)C1(Cc2ccccc2C)CCCN(S(=O)(=O)c2cccnc2)C1 (centres unmarked) | -5.1
31 | Cn1cccc1/C=C1\C(=O)NC(=O)N(Cc2ccccc2)C1=O | 1.65
32 | COc1ccc(/C=C(/NC(=O)c2ccccc2)c2nc3ccccc3[nH]2)cc1OC | -12.5
33 | Cc1cccc(NC(=O)CSC(N)=O)c1C | 16.9
34 | O=C(NC(=S)Nc1ccc(Cl)c(C(=O)O)c1)c1cncc(Br)c1 | 20.1
35 | CCOC(=O)c1ccc(CNC(=O)c2cc(COc3ccccc3SC)on2)o1 | 1.07
36 | CCCCn1c(SCC(=O)OC)nc2c1c(=O)n(C)c(=O)n2C | -5.71
37 | COCC(=O)N(c1ccc(C(C)C)cc1)C1C=CS(=O)(=O)C1 (centres unmarked) | 15.9
38 | O=C(O)C1Cc2ccccc2CN1C(=O)COc1ccc(Cl)cc1Cl (centres unmarked) | 15.5

Row | SMILES | hERG current change (%, negative = inhibition) at 10uM [%]
39 | CCOc1cc(CNc2ccc(N3CCOCC3)cc2)cc(Br)c1OCC | 11.3
40 | CCOc1ccc(CC(=O)NNC(=O)NC2CCCCC2)cc1 | 5.67
41 | CN(C)c1cc[n+](CC(=O)N2c3ccccc3Sc3ccccc32)cc1.[Cl-] | 6.95
42 | COc1cc(SC#N)ccc1N=Cc1c(C)[nH]n(-c2ccc(C)cc2C)c1=O | 20.8
43 | Cc1ccc(C(=O)COC(=O)CNC(=O)c2ccc(N3C(=O)c4ccccc4C3=O)cc2)cc1C | 10.7
44 | NN/C(=C\[N+](=O)[O-])Nc1ccc(Cl)cc1 | 13.6
45 | CC1=CC(C)(C)N(C(=O)CN2C(=O)c3ccccc3C2=O)c2ccccc21 | 0.597
46 | NC[C@H](O)c1ccc(O)c(O)c1.O.O=C(O)C(O)C(O)C(=O)O | 10.3
47 | CCOc1ccc(S(=O)(=O)N2CCCC(C(=O)Nc3ccccc3)C2)cc1 (centres unmarked) | 13.4
48 | Cc1ccccc1C(=O)Nc1ccc(C(=O)O)cc1NC(=O)c1ccccc1C | 17
49 | CCOc1ccc(-c2csc(NC(=O)c3cccc(N4C(=O)CCC4=O)c3)n2)cc1 | 0.594
50 | CC1CCN(c2oc(-c3cccc4ccccc34)nc2C#N)CC1 | 7.37
51 | Cc1ccc(OCC(=O)N2CCN(C(=O)Cc3ccccc3)CC2)cc1 | -38.4
52 | CCOc1ccccc1OCC(=O)OCC(=O)c1c(N)n(CC(C)C)c(=O)n(C)c1=O | -67.5
53 | Cc1cccc(-c2ncc(S(=O)(=O)C(C)(C)C)c(N)n2)c1 | 12.8
54 | O=C(Nc1ccnc(-c2ccncc2)n1)c1cccs1 | -16.8
55 | COc1ccccc1/C=C/C=c1\sc2nc(=O)c(Cc3ccccc3)nn2c1=O | 7.31
56 | O=C1C=C(Nc2cccc(O)c2)CC(c2ccco2)C1 (centres unmarked) | -11.1
